In PubChem BioAssay AID2147 (National Center for Advancing Translational Sciences (NCATS), 2009):
The whole screen tested about 230,000 compounds, of which about 3,600 (1.6%) were called active. This list was built around the results that the source calls inconclusive (neither active nor inactive); the mix of calls is not that of the screen. Calls come from the whole dose curve; as a rule, active = well fitted inhibition curve with a large enough effect (not every such curve was filed as active); inconclusive = small, poorly fitted or top-dose-only effect, or another doubt; inactive = no such curve, though single readings can be large or run the other way. Where the call is inconclusive, the potency comes from a doubtful curve fit.
Note: nearly all actives have a fitted effect of over 50% in size.
Potency is the fitted concentration of half-maximal effect; tags give direction and shape of the fitted curve.

The compounds below were run against Lysine-specific demethylase 4E (Homo sapiens) (UniProt B2RXH2) (assay: qHTS Assay for Inhibitors of Human Jumonji Domain Containing 2E (JMJD2E)). Conditions: JMJD2E catalytic domain, FDH-coupled NADH fluorescence (FDH is formaldehyde dehydrogenase); series mostly up to 57.1 µM.
Chain of UniProt B2RXH2 (B2RXH2 whole entry, looked up, the tested form may be a part): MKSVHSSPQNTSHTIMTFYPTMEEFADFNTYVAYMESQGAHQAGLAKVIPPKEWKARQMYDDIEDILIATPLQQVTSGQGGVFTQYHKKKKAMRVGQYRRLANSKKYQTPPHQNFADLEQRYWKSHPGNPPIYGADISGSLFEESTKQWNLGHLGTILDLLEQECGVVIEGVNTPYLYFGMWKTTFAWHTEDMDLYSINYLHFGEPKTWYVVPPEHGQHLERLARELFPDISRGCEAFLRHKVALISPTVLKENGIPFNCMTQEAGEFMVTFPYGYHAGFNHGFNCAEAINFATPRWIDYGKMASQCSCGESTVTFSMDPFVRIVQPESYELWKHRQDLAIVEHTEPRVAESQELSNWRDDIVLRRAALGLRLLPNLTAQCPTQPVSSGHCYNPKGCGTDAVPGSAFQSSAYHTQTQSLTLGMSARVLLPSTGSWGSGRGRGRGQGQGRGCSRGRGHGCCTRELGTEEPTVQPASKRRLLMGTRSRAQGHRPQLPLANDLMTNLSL
From the text: Assay Provider: Structural Genomics Consortium [SGC] Screening Center PI: Austin, C.P. Screening Center: NIH Chemical Genomics Center [NCGC] The fine interplay among methylation states of several lysine residues on the tails of histone proteins is a major determinant of the transcriptional state of the associated DNA coding regions and is commonly referred to as the histone code. Histone lysine demethylases catalyze the removal of methyl groups from methylated lysine sidechains on histones H3 and H4, thus antagonizing the reactions catalyzed by histone lysine methyltransferases. […] In search for novel inhibitors of JMJD2E demethylase, a member of the largest set of histone demethylases belonging to the Fe(II) and 2-oxoglutarate oxygenase (2OG) superfamily, we performed a quantitative high-throughput screen (Inglese 2006) by using an assay which utilizes a trimethylated peptide substrate corresponding to a fragment of histone H3 (sequence ARKme3STGGK) with detection of the formaldehyde co-product in real time by a formaldehyde dehydrogenase (FDH) coupled reaction. FDH catalyzes oxidation of formaldehyde to formic acid with the concomitant reduction of the non-fluorescent beta-nicotinamide adenine dinucleotide hydrate (NAD+) cofactor to the fluorescent NADH co-product. References: Inglese, J., Auld, D., Jadhav, A., Johnson, R., Simeonov, A., Yasgar, A., Zheng, W. and Austin, C. Proc Natl Acad Sci USA 2006, 103, 11473-11478. N. R. Rose, S. S. Ng, J. Mecinovic, B. M. Lienard, S. H. Bello, Z. Sun, M. A. McDonough, U. Oppermann and C. J. Schofield, J Med Chem, 2008, 51, 7053-7056. Sakurai, M., Rose, N., Schultz, L., Quinn, A., Jadhav, A., Ng, S., Oppermann, U., Schofield, C.J. and Simeonov, A. Mol BioSystems 2009, in press. S. Michael, D. Auld, C. Klumpp, A. Jadhav, W. Zheng, N. Thorne, C. Austin, J. Inglese and A. Simeonov, Assay Drug Dev Technol, 2008, 6, 637-657.
Reagents and Controls: Ferrous ammonium sulfate, (+)-sodium L-ascorbate, beta-nicotinamide adenine dinucleotide hydrate (NAD+), Tween-20, formaldehyde dehydrogenase from P. putida (FDH), and disodium 2-oxoglutarate were from Sigma (St. Louis, MO). Black solid-bottom 384-well or 1,536-well assay plates were from Greiner Bio-One (Monroe, NC). Enzyme was supplied by Prof. Udo Oppermann, SGC-Oxford. The catalytic domain of human JMJD2E (residues 1-337) was produced as an N-terminally His6-tagged protein in E. coli, and purified by Ni-affinity chromatography and size-exclusion chromatography, and stored in HEPES 50 mM/ NaCl 500 mM pH 7.5, as reported in Rose 2008. The trimethylated histone peptide substrate ARK(me3)STGGK was synthesized and HPLC-purified by the Tufts University Core Facility (Boston, MA). Substrate solution (Sakurai 2009) contained 50 uM ARK(me3)STGGK, 0.00025 U/uL FDH, 50 uM 2-oxoglutarate, 250 uM NAD+, 1 mM ascorbate, and 10 uM ferrous ammonium sulfate. Controls and plate map: Buffer (150 mM HEPES pH 7.5 containing 0.01% Tween-20) in columns 3 and 4 as negative control (no enzyme) and 100 nM JMJD2E final concentration in columns 1,2, and 5-48. Assay Steps: Enzyme and buffer solutions (3 uL) were dispensed into a 1,536-well Greiner black solid-bottom assay plate. The library compounds (23 nL) were transferred using a Kalypsys pintool equipped with 1,536-pin array. The plate was incubated at room temperature (15 min), and then a 1 uL aliquot of substrate solution was added to initiate the reaction. The plate was transferred to ViewLux imager where an initial reading using standard UV optics (Ex 340 nm, Em 450 nm) was obtained. The plate was then removed from the reader, incubated for 30 minutes at room temperature, and returned to the reader for a second fluorescence reading. A fully automated robotic screening system (Kalypsys Inc, San diego, CA) was used to perform the above steps as described previously (Michael 2008). […]
For `Cc1cc(N/N=C/c2ccc(N(C)C)cc2)nc(NCc2ccccc2)n1`, the Potency was inconclusive: 35.5 µM [inhibitor, partial curve]. `O=C(Nc1nnc(-c2ccc(F)cc2)o1)c1cc(Cl)sc1Cl` was tested, and the Potency was inconclusive: 39.8 µM [inhibitor, single point]. `CN(C)c1ccc(-c2noc(C3CCN(C(=O)Nc4ccc(Cl)cc4)CC3)n2)cc1` was tested, and the Potency was inconclusive: 39.8 µM [inhibitor, single point]. `COCCCNC(=S)NNC(=S)Nc1ccc(F)cc1F` was tested, and the Potency was “inactive”. `COc1cc2cc(CN(Cc3nnnn3Cc3ccco3)C3CCCCC3)c(=O)[nH]c2cc1OC` was tested, and the Potency was inconclusive: 31.6 µM [inhibitor, partial curve]. `CC1(C)Oc2ccccc2OC1(O)c1ccc2ccccc2n1` (stereo not given) was tested, and the Potency was “inactive”. For `O=C(Nc1nncs1)c1c(F)c(F)c(F)c(F)c1F`, the Potency was “inactive”. `O=S(=O)(c1ccc2c(c1)OCCO2)N1CCC(n2nnc3cc(F)ccc32)CC1` was tested, and the Potency was “inactive”. For `O=S1(=O)N=C(N(CCO)/N=C/c2ccncc2)c2ccccc21`, the Potency was “inactive”. For `CC(=O)Nc1cc2cc(NS(=O)(=O)c3ccc(Cl)cc3)ccc2oc1=O`, the Potency was inconclusive: 25.1 µM [inhibitor, single point]. For `COC(=O)[C@@H]1C[C@H]2CC[C@H](O)C[C@H]2N1Cc1ccc(-c2ccccc2)cc1`, the Potency was inconclusive: 3.16 µM [inhibitor, partial curve]. In the case of `O=C(O)c1c(-c2ccccc2)c2oc3ccccc3c2[nH]c1=O`, the Potency is reported as inconclusive: 28.2 µM [inhibitor, partial curve]. For `Cc1ccc(-n2ncc3c(=O)n(-c4ccc(C)c(C)c4)c(-c4ccco4)nc32)cc1`, the Potency was inconclusive: 28.2 µM [inhibitor, single point]. `N#CC1=C(N)Oc2c(ccc3cccnc23)C1c1cccnc1` (stereo not given) was tested, and the Potency was inconclusive: 28.2 µM [inhibitor, partial curve]. For `Cc1ccc(NNC(=O)C(=O)N2CCCCC2)cc1`, the Potency was “inactive”. For `Cc1cc(C)c(C#N)c(N)n1`, the Potency was inconclusive: 31.6 µM [inhibitor, partial curve]. With `COC(=O)C1=CN(Cc2ccc(OC)cc2)C=C(C(=O)OC)C1c1cccs1` the Potency was inconclusive: 28.2 µM [inhibitor, partial curve]. With `Cc1cc(S(=O)(=O)N2CCCC2)ccc1OCC(=O)N1CCC(C(N)=O)CC1` the Potency was “inactive”. In the case of `CCn1cc(CNCc2cn(C)nc2-c2ccc(C3CCCCC3)cc2)cn1`, the Potency is reported as “inactive”. With `Oc1ccc(COCc2ccccc2)c2cccnc12` the Potency was inconclusive: 35.5 µM [inhibitor, single point]. With `COC(=O)c1ccc2nc(C(F)(F)F)[nH]c2c1` the Potency was inconclusive: 39.8 µM [inhibitor, single point]. With `COc1ccc(Cl)cc1CN1CCOCC1` the Potency was “inactive”. With `CCn1c(NC(=O)c2cccc(Cn3cc(Cl)cn3)c2)nc2ccccc21` the Potency was inconclusive: 35.5 µM [inhibitor, single point]. For `O=C(COC(=O)Cc1ccc(S(=O)(=O)N2CCOCC2)s1)NCc1ccc(Cl)cc1`, the Potency was “inactive”. For `Cc1ccc(OCC(=O)N2CCCCC2)c(Br)c1`, the Potency was “inactive”. With `Cc1cc(/C=N/NC(=O)Cn2c3ccccc3c(=O)c3ccccc32)c(C)n1-c1ccc(Cl)cc1` the Potency was inconclusive: 31.6 µM [inhibitor, partial curve]. With `Cc1cccc(NC(=O)NCCN2C(=O)C3C4C=CC(C4)C3C2=O)c1` (stereo not given) the Potency was “inactive”. With `Cc1cc(C)c2cc(C(=O)Nc3ccc4c(c3)OCO4)[nH]c2c1` the Potency was inconclusive: 39.8 µM [inhibitor, single point]. In the case of `COc1ccc(-c2cc(=O)oc(-c3cccc(C)c3)n2)cc1`, the Potency is reported as inconclusive: 2.82 µM [inhibitor, single point]. With `Clc1ccc(C(c2ccccc2)N2CCN(c3ccccn3)CC2)cc1` (stereo not given) the Potency was inconclusive: 39.8 µM [inhibitor, single point]. For `Fc1cccc(Nc2nc3ccccc3n3nnnc23)c1`, the Potency was inconclusive: 31.6 µM [inhibitor, single point]. In the case of `CC(NC(=O)c1ccc(N)cc1)c1ccccc1` (stereo not given), the Potency is reported as “inactive”. With `COc1cc(OC)cc(-c2nc(-c3ccccc3OC)no2)c1` the Potency was “inactive”. In the case of `Fc1ccc(C2=NN(c3ccccc3)C(c3ccco3)C2)cc1` (stereo not given), the Potency is reported as inconclusive: 25.1 µM [inhibitor, partial curve]. In the case of `C=CCn1c(CNC(=O)c2ccco2)nnc1SCC(=O)c1ccccc1`, the Potency is reported as “inactive”. With `Cc1ccc2nc(N3CCN(Cc4nnnn4Cc4ccccc4)CC3)c(C#N)cc2c1` the Potency was inconclusive: 31.6 µM [inhibitor, single point]. In the case of `c1ccc2c(NC3CCCC3)nnc(NC3CCCC3)c2c1`, the Potency is reported as inconclusive: 39.8 µM [inhibitor, single point]. With `Cc1ccc(NC(=O)c2cccc(N(C)C)c2)cc1NC(=O)c1ccc(O)cc1` the Potency was inconclusive: 15.8 µM [inhibitor, partial curve, poor fit]. In the case of `COC(=O)[C@@]1(Cc2ccc(F)cc2)[C@H]2c3cc(C(=O)N4CCCC4)n(Cc4cccc5ccccc45)c3C[C@H]2CN1C(=O)c1ccccc1`, the Potency is reported as “inactive”. With `CCOC(=O)c1[nH]c2ccc(F)cc2c1NC(=O)CN1CCN(C/C=C/c2ccccc2)CC1` the Potency was inconclusive: 28.2 µM [inhibitor, partial curve]. For `O=C(CSc1nnnn1C1CCCCC1)NCc1ccc2c(c1)OCO2`, the Potency was “inactive”. In the case of `O=C(COC(=O)c1ccc2c(c1)C(=O)N(c1cccc3ncccc13)C2=O)c1ccc(Cl)cc1`, the Potency is reported as “inactive”. In the case of `O=C(O)c1ccc(C2CCCCC2)cn1`, the Potency is reported as inconclusive: 35.5 µM [inhibitor, single point]. For `COC(=O)C1=C(O)/C(=C\c2cc(C)n(-c3ccc(F)cc3)c2C)N=C1C`, the Potency was inconclusive: 35.5 µM [inhibitor, single point]. With `CCOC(=O)c1sc(=NC(=O)COc2ccccc2)n(C)c1C` the Potency was inconclusive: 35.5 µM [inhibitor, single point]. In the case of `CCN(CC)C(=O)CSc1nc2ccc(NC(=O)CSc3nnc(N)s3)cc2s1`, the Potency is reported as “inactive”. In the case of `CCCCOC(=O)Nc1ccc(N(C)C)cc1`, the Potency is reported as inconclusive: 39.8 µM [inhibitor, single point]. In the case of `C/C(=N\Nc1ccccc1Cl)c1ccc(-n2ccnc2)cc1`, the Potency is reported as inconclusive: 39.8 µM [inhibitor, single point]. In the case of `COC(=O)c1ccc(CSc2nnc(NCc3ccccc3)s2)o1`, the Potency is reported as “inactive”. With `O=C(NC(=S)Nc1cc(-c2nc3ccccc3[nH]2)ccc1Cl)c1ccc2c(c1)OCO2` the Potency was inconclusive: 28.2 µM [inhibitor, partial curve]. For `CC(C)C(=O)Nc1ccc2c(c1)C(=O)N(CCC(=O)O)C2=O`, the Potency was inconclusive: 31.6 µM [inhibitor, partial curve]. With `Cc1ccn2c(Nc3ccccc3C)c(-c3ccccn3)nc2c1` the Potency was “inactive”. In the case of `COc1ccccc1CN=Cc1[nH]c2ccc(Br)c(Cl)c2c1O`, the Potency is reported as “inactive”. `CCCNC(=O)c1ccc2c(=O)c(O)c(-c3ccc(Cl)c([N+](=O)[O-])c3)[nH]c2c1` was tested, and the Potency was inconclusive: 39.8 µM [inhibitor, single point]. `COc1ccc(C(CC(=O)Nc2ccccc2OC)n2cccc2)cc1` (stereo not given) was tested, and the Potency was “inactive”. `COc1ccc(OCC(O)CN2CCN(Cc3ccc4c(c3)OCO4)CC2)cc1` (stereo not given) was tested, and the Potency was “inactive”. `Cc1onc(C(=O)Nc2sc3c(c2C#N)CCCC3)c1[N+](=O)[O-]` was tested, and the Potency was “inactive”. In the case of `CC(C)C(=O)NNC(=O)CN1CCN(c2nc(-c3ccccc3)cs2)CC1`, the Potency is reported as inconclusive: 11.2 µM [inhibitor, partial curve]. For `Cc1ccnc(N)c1`, the Potency was inconclusive: 35.5 µM [inhibitor, partial curve]. For `Cc1ccn2c(CNCCn3cccn3)c(C(=O)N3CCCCCC3)nc2c1`, the Potency was inconclusive: 11.2 µM [inhibitor, partial curve]. In the case of `Cc1cc(C)nc(NC(=O)c2ccc(COc3ccccc3Cl)cc2)c1`, the Potency is reported as inconclusive: 39.8 µM [inhibitor, single point]. In the case of `O=C(/C=C/c1ccccc1Cl)c1ccc(O)cc1`, the Potency is reported as “inactive”. `Cn1c(=O)c2c(nc(CN3CCN(CCO)CC3)n2Cc2cccc3ccccc23)n(C)c1=O` was tested, and the Potency was “inactive”. For `COc1ccccc1NC(=O)C1=C(C)Nc2nc3ccccc3n2C1c1cccs1` (stereo not given), the Potency was inconclusive: 35.5 µM [inhibitor, single point]. With `CC(C)NCCCCOc1cccc(Br)c1` the Potency was inconclusive: 28.2 µM [inhibitor, single point]. For `O=c1c2cnn(-c3ccccc3)c2nc(-c2cccs2)n1-c1ccc(Br)cc1`, the Potency was inconclusive: 12.6 µM [inhibitor, partial curve, poor fit]. For `Cc1ccc(NC(=O)Cn2cnc3c(nnn3Cc3ccc(F)cc3)c2=O)cc1`, the Potency was “inactive”. With `CCCCCC(=O)Nc1cc2[nH]c(=O)cc(COC)c2cc1C` the Potency was inconclusive: 3.16 µM [inhibitor, partial curve]. `CCOCCCNc1nc(C)nc2c1nnn2Cc1c(F)cccc1Cl` was tested, and the Potency was “inactive”. `CC1(C)NC(=O)N(CC(O)COc2cc3ccccc3cc2C(=O)N2CCCCC2)C1=O` (stereo not given) was tested, and the Potency was inconclusive: 28.2 µM [inhibitor, single point]. `CC(C)Sc1nc(NCc2ccco2)c2c3c(sc2n1)COC(C)(C)C3` was tested, and the Potency was inconclusive: 28.2 µM [inhibitor, partial curve]. With `CCn1nnc(NC(=O)CSc2ccc(Cl)cc2)n1` the Potency was “inactive”. In the case of `Cc1ccc(-c2c[nH]c(=S)n2-c2ccccc2)cc1`, the Potency is reported as “inactive”. For `Cc1cc(N2CCCCC2)nc2ccc(NC(=O)c3ccc(Br)o3)cc12`, the Potency was inconclusive: 39.8 µM [inhibitor, single point]. In the case of `CCOc1cccc(-c2cc(C(=O)N/N=C/c3ccc(OC)c(CN4CCOCC4)c3)c3ccccc3n2)c1`, the Potency is reported as inconclusive: 39.8 µM [inhibitor, single point].
